The campaign covered roughly 48,000 compounds. About 450 (0.94%) were called active. Inconclusive results (about 19%) are left out. The call rests on the fitted dose curve; in most records, active means well fitted inhibition curve with a large enough effect; inconclusive means small, poorly fitted or top-dose-only effect; inactive means no such curve, though single readings can be large or run the other way. Some of the results follow.
Assay: Primary qHTS for Identification of Small Molecule Inhibitors of Huntingtin Promoter Activity; further: nearly all actives have a fitted effect of over 50% in size
Conditions: HEK293 HTT promoter firefly luciferase reporter (activity 0% = vehicle and -100% = no light), 24 h; series mostly up to 57.5 µM; activity change, negative = inhibition: at the top concentration
Outline: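 Firefly luciferase readout (Dual-Glo, 10 min RT) after 24 h, 37 °C compound exposure (final up to 57.5 uM) of HEK293 reporter cells cultured 24 h beforehand; PTC124 at 50 uM final as control inhibitor; activity scaled vehicle 0%, zero RLU -100%.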

Activity change, negative = inhibition, inactive:
O=S(=O)(NCCc1csc2nc(-c3ccccc3)nn12)c1cccs1 -24.4%
CCOc1ccc(-c2cn3c(n2)sc2cc(C(=O)NCCc4ccc(OC)cc4OC)ccc23)cc1 -15.9%
CC(Oc1c(Cl)cccc1Cl)C1=NCCN1 (stereo not drawn) 10.5%
CCOc1ccccc1NC(=O)C(CC(C)C)NC(=O)C1CCC(C)CC1 (stereo not drawn) -12.9%
COc1cccc2c1cc1c(=O)n(CC(=O)N3CCN(c4cccc(C(F)(F)F)c4)CC3)nc(C)n12 -14.9%
O=C(COc1ccccc1Cl)Nc1nnc(S(=O)(=O)N2CCCC2)s1 -14.5%
Cc1ccc(NC(=O)CCc2c(C)nn(-c3ccc(N4CCOCC4)nn3)c2C)c(C)c1 -10.4%
COc1ccc(-n2nc3ccc(NC(=O)c4ccc(C#N)cc4F)cc3n2)cc1Cl -1.95%
O=C(Nc1cccs1)Nc1ccc(F)cc1F -10.6%
O=C(O)Cn1c(-c2cccs2)cc2cc(Cl)ccc21 3.01%
O=C(Nc1cccc(C(F)(F)F)c1)c1cc(-c2ccc(Cl)s2)nc2ccccc12 -12.5%
COc1ccc(Cn2c(CO)cnc2SCC(=O)Nc2ccc3c(c2)OCCO3)cc1 4.71%
COc1cccc(COC(=O)c2ccc(-c3nnn(Cc4cccc(OC)c4)n3)cc2)c1 1.38%
CCOc1ccc(NC2SC(=O)N(Cc3ccccc3)C2=O)cc1 (stereo not drawn) 1.4%
COc1cccc2sc(NC(=O)CS(=O)(=O)c3ccc(C)cc3)nc12 -18.6%
Cn1c(-n2cccc2)c(-c2c(-c3ccc(F)cc3)[nH]c3c2c(=O)n(C)c(=O)n3C)c(=O)n(C)c1=O 6.29%
COCCCNC(=O)Cn1nc(N2CCN(c3ccccc3)CC2)ccc1=O 2.04%
CCCSc1oc(-c2ccco2)nc1S(=O)(=O)c1ccc(Br)cc1 -20.7%
Cc1ccc(S(=O)(=O)n2nc(-c3ccc(Cl)cc3)nc2NCc2ccccc2)cc1 -7.35%
CN(C)CC/C=C1\c2ccccc2COc2ccccc21 -4.66%
CC1CCc2c(sc3nnn(Cc4cccc(C(=O)OC(C)C)c4)c(=O)c23)C1 (stereo not drawn) -2.5%
CC(=O)N1CCc2c(sc3c2c(=O)n(-c2ccc(F)cc2)c(=O)n3Cc2ccc(C#N)cc2)C1 -3.84%
CCOc1ccccc1CNC(=O)C1CCN(S(=O)(=O)c2c(C)noc2/C=C/c2ccccc2F)CC1 -17.1%
CCn1c(C(=O)NCc2ccccc2OC)cc2sccc21 -21.9%
CC1=C(c2ccc(C(C)C)cc2)S(=O)(=O)N=C1N1CCC(C(=O)NCc2ccccc2)CC1 -30%
COc1ccc(-n2ccnc(NCc3cccs3)c2=O)cc1OC -17%
CCCCOc1ccc(S(=O)(=O)n2nc(C)c(S(=O)(=O)N3CCC(C)CC3)c2C)cc1 -12.6%
CCCOC(=O)C(C)n1nnc2sc(-c3ccccc3)cc2c1=O (stereo not drawn) 20.8%
Cc1ccn2c(Nc3ccc4c(c3)OCO4)c(-c3ccc(O)cc3)nc2c1 4.3%
CCCCN1CCCC1C(=O)Nc1c(C)cc(C)cc1C (stereo not drawn) -0.445%
CCCN1CCN(c2ncnc3sc(C(=O)Nc4ccc(N(CC)CC)cc4C)c(C)c23)CC1 -36.6%
COc1cccc(CNS(=O)(=O)c2cc(Br)cc3c2N(C(C)=O)C(C)C3)c1 (stereo not drawn) -4.89%
O=C(CSCc1cnn(-c2ccccc2)c1-n1cccc1)NCc1ccccc1F -31.8%
COc1cccc(CC(=O)NCc2ccc3c(c2)CCN3C(C)=O)c1 -0.481%
CCc1ccccc1NC(=O)C1CCN(c2nn3c(=O)cc(C)nc3s2)CC1 -15.7%
CN(C)S(=O)(=O)Nc1ccc(-c2cn3ccsc3n2)cc1 40.5%
CCc1ccc(-n2c(=O)c3c4c(sc3n(CC(=O)NCCCOC)c2=O)CCC4)cc1 -15.5%
Cc1ccc2oc(C(=O)Nc3ccc(S(=O)(=O)N(C)Cc4ccccc4)cc3)cc(=O)c2c1 -7.89% [at 11.5 µM]
Cc1ccc(-n2nc(C(=O)N3CCN(c4ccccc4)CC3)c(=O)n(C)c2=O)cc1 0.64%
COC(=O)c1ccccc1NC(=O)c1nc(S(=O)(=O)Cc2ccccc2F)ncc1Cl -7.61%
C[C@]12CC[C@@H]3c4ccc(O)cc4CC[C@H]3[C@@H]1C[C@@H](O)[C@@H]2O 1.59%
CC(NC(=O)c1ccc2nc(CCc3ccccc3)oc2c1)c1ccccc1 (stereo not drawn) 7.22%
Cc1ccccc1Cn1c(C)c(CNCc2ccccc2)c(C(=O)O)c1C -9.08%
O=C(NCCc1ccc(Cl)cc1)c1ccc2c(c1)N(Cc1ccccc1)CCS2 -8.54%
COc1ccc(NC(=O)c2nc(SCc3ccccc3F)ncc2Cl)cc1 4.91%
Cc1ccc(C)c(NC(=O)CCc2c(C)n(C)c3cc(-c4ccccc4C)nn3c2=O)c1 -9.8%
CC(C)c1ccc(C2=CC(c3cccc(Cl)c3)n3ncnc3N2)cc1 (stereo not drawn) -36.9%
Cc1ccc(NC(=O)CCS(=O)(=O)c2cccc3nonc23)c(C)c1 -8.01%
CCOc1ccc(NC(=O)Cn2c(CCC(=O)O)ccc2-c2ccc(Cl)cc2)cc1 0.0837%
Cc1ccc(C)c(Cn2c3ccccc3c3cnn(CC(=O)N4CCCCC4)c(=O)c32)c1 16.5%
O=C(OCCN1CCOCC1)c1cccnc1Nc1cccc(C(F)(F)F)c1 -2.84%
COc1ccc(Cl)cc1NC(=O)c1cc(S(=O)(=O)N2CCc3ccccc32)cn1C -11.4%
Cc1cccc(-n2c(=O)c3ccccc3n(Cc3ccccc3C#N)c2=O)c1 -25.4%
COc1cc2c(C(=O)N3CCN(c4cccc(C)c4)C(C)C3)cn(CC(C)C)c(=O)c2cc1OC (stereo not drawn) -18.1%
Cc1nn(CCC(=O)NC(C)C)c(=O)c2nn(-c3ccccc3)c(C)c12 12.4%
O=C(CSc1nc2c([nH]c3ccccc32)c(=O)n1-c1cccc(Cl)c1)N1CCc2ccccc21 -15.9%
Cc1ccc2nc(NCc3ccccc3Cl)c3nnnn3c2c1 -5.38%
CC(C)(C)c1ccc(C(=O)CCCCl)cc1 24.7%
COc1cccc(C(=O)CN2CCN(S(=O)(=O)c3ccc(Cl)cc3)CC2)c1 -4.4%
Cc1nc(N)sc1-c1ccnc(Nc2ccc(N3CCOCC3)cc2)n1 -25.7%
COc1cc2ccccc2cc1C(=O)Nc1ccc2oc(-c3cc(Br)ccc3Cl)nc2c1 -9.83%
O=C(CN1C(=O)CSc2ccc(S(=O)(=O)N3CCCCC3)cc21)NCc1ccc(F)cc1Cl -28.5%
COc1cc(NC(=O)CCc2c(C)n(C)c3cc(-c4ccccc4C)nn3c2=O)cc(OC)c1OC 1.01%
CCOc1ccccc1NC(=O)c1sc2nc3c(cc2c1N)CN(Cc1ccccc1)CC3 -2.15%
CCc1cccc2c3c([nH]c12)C(CC)(CC(=O)O)OCC3 (stereo not drawn)
CCc1ccc(C2C(C(=O)Nc3ccccc3)=C(C)Nc3nc(SCC(=O)c4ccc(C)cc4)nn32)cc1 (stereo not drawn) 2.51%
CC(=O)c1ccc(NC(=O)Cn2c3ncccc3c(=O)n2-c2ccc(C)cc2)cc1 -24.6%
COc1ccc(NC(=O)c2cnc(SCC(=O)Nc3nc4ccc(C)cc4s3)n(C)c2=O)cc1 19.1%
Cc1ccc(-c2noc(CSc3nnc(-c4ccc(Cl)cc4)n3C)n2)cc1 -27.1%
Cc1cccc(C(=O)NCC(c2ccc3c(c2)OCO3)N2CCOCC2)c1 (stereo not drawn) -22.9%
O=C(c1ccco1)c1cn(CCOc2ccc(Cl)cc2)c2ccccc12 6.73%
Cc1noc(NS(=O)(=O)c2ccc(N)cc2)c1C
COc1ccc(C(CNC(=O)c2ccc(C)cc2)N2CCOCC2)cc1 (stereo not drawn) -5.61%
CCC(=O)N1CCc2cc(CNC(=O)Nc3ccc(OC)cc3OC)ccc21 -22%
COc1ccccc1-c1cc(C(F)(F)F)nc(S(=O)(=O)CCCC(=O)Nc2cc(Br)ccc2O)n1 30.6%
O=C(CSc1nccn1Cc1ccccc1)NC1CCCC1 7.31%
CCCCC(=O)O[C@]1(C(=O)CO)CC[C@H]2[C@@H]3CCC4=CC(=O)CC[C@]4(C)[C@H]3[C@@H](O)C[C@@]21C -8.06%
CN(C)c1ccc(C(CNS(=O)(=O)c2cc(F)ccc2F)N2CCOCC2)cc1 (stereo not drawn) 1.52%
O=C(CSCc1ccc(F)cc1)N1CCN(c2ccccc2)CC1 -0.284%
Cc1cc(C)c(Cn2c(=O)n(CCCCCC(=O)NCc3ccc4c(c3)OCO4)c(=O)c3sccc32)c(C)c1 -0.98%
COc1cccc(NC(=O)Cn2c(=O)n(-c3cccc(OC)c3)c(=O)c3c4c(sc32)CCCC4)c1 0.238%
Cc1ccc(CN(C(=O)c2ccccc2Br)C2CCS(=O)(=O)C2)o1 (stereo not drawn) -6.01%
O=C(Nc1ccc2oc(-c3ccc4ccccc4c3)nc2c1)c1cc(Br)ccc1Cl 15.8%
CC1CCC(NC(=O)c2ccc3c(c2)N(Cc2cccc(Cl)c2)C(=O)c2ccccc2S3=O)CC1 (stereo not drawn) 4.05%
Cn1c(=O)c2c(SCC(=O)NCc3ccco3)nc(-c3ccccc3F)nc2n(C)c1=O -4.62%
CCOc1ccccc1NC(=O)COc1cccc2c(=O)n(CCOC)ccc12 0%
O=C(CCCc1nc(-c2ccco2)no1)Nc1ccccc1[N+](=O)[O-] -7.53%
COc1cccc(-n2c(=O)c3c4c(sc3n(Cc3ccc(F)cc3Cl)c2=O)CCCC4)c1 19.5%
CCC1CCCCN1S(=O)(=O)c1ccc(N2CCCCS2(=O)=O)cc1 (stereo not drawn) -28.9%
COc1ccc(-c2[nH]ncc2C(=O)NCc2cccc(F)c2)cc1 -28.3%
COc1ccc(C2=NN(C(C)=O)C(c3cn(-c4ccccc4)nc3-c3cccs3)C2)cc1 (stereo not drawn) -26.3%
CCOC(=O)c1ccc(NC(=O)c2c(C)oc3nc(C)nc(N4CCCC4)c23)cc1 -3%
Cc1ccc(-n2nc(-c3ccc(F)cc3)c3cnc4cc5c(cc4c32)OCO5)cc1C -13.4%
COCCNC(=O)c1ccc2nc(CCc3ccccc3)oc2c1 23.8%
CCc1ccc(NC(=O)CC(c2ccc(C)cc2)N2Cc3ccccc3C2=O)cc1 (stereo not drawn) -10.1%
Cc1ccc(Cl)cc1N1CCN(C(=O)CCSCc2ccccc2F)CC1 -22.6%
Cc1c(C(=O)Nc2ccc(Br)cc2F)oc2ccc(S(=O)(=O)N3CCC4(CC3)OCCO4)cc12 -15.4%
Cc1cc(OCC(=O)NC(Cc2c[nH]c3ccccc23)C(=O)O)ccc1Cl (stereo not drawn) -4.87%
